According to the supplement of paper PMC3334620:
In all, about 33,000 sequences were measured (“E-score (-0.5 to 0.5)”: median about -0.054, highest 2% from about 0.39 on). The list shows a part of the results.

molecular target: Ylr278c (UniProt Q05854); assay: PBM E-score (8-mer binding enrichment) (E-score (-0.5 to 0.5)); higher = stronger / more preferred TF binding; most listed sequences are background and not binding sites; details: protein concentration: 200 nM; construct: GST-DNA-binding domain
Outline: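 For each ungapped eight-base word taken together with its reverse complement, the Universal PBM Analysis Suite assigned an E-score. Binding data came from GST-tagged yeast transcription factors, applied at about 100-200 nM, on universal all-10-mer Agilent arrays made double-stranded by primer extension. Fluorescent anti-GST marked bound protein, and scans were normalised with masliner.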

Sequence	PBM E-score
CAATCTCC	0.375
AACCCGAC	0.255
GCCAGAGC	-0.222
GGCGCAAA	0.124
AGCCCAAA	0.13
CCCGCCAA	0.193
CGGGCGGC	0.31
ACAGCAGT	-0.139
CGAAGCGA	0.0545
AAACTCAA	-0.038
ATGTTTCC	0.151
CGTGGGTC	-0.163
AGAGGGAC	-0.19
GAGTCGGA	0.387
GGTGCAAC	0.113
AGGACGCG	-0.114
CACGACCG	0.00364
AGCTCGCG	0.0279
ACGCCGAG	0.296
AAAAGACG	-0.0309
ACAAGTTA	0.0955
ACGTCTGC	-0.205
CAGTAGAG	-0.304
CTGGCAAG	-0.195
AGCTTATG	-0.148

Sequence	PBM E-score
ATTATCTC	0.0905
CGGTTCGA	0.075
AGAGCCGG	0.303
TAAGGAAA	-0.131
ATTGTTAC	-0.0111
GGCTGGTA	-0.0823
CCATCGGG	0.259
AGGTGCAG	-0.16
AGTTGTGC	-0.114
CCGATTCC	0.393
ATACTGGC	-0.241
GAATTCTC	0.164
AGAGCCCA	-0.203
GATCCACC	-0.196
AACGTGGT	-0.273
GAAAGCCC	0.193
ATGAAGAA	-0.0491
GCTCATAC	-0.0327
AGTCTATG	-0.373
ATCAAGCA	-0.087
TATGACGA	0.0295
CTGCGGTC	-0.00227
CCAGTATA	-0.0769
CCTTAAAA	-0.336
ATCCATAG	0.0115

Sequence	PBM E-score
AAGGCACT	-0.187
TGAGACAA	-0.0146
ATGCGGTG	-0.0702
GAACCATA	0.0607
CCTTGAAA	-0.13
ATAAGCAA	-0.0897
TGAGTACA	-0.156
CCCTATGA	-0.181
CCATTGCG	0.082
CTCATTAA	-0.0505
TCATTGGA	-0.202
TGATGAAA	-0.166
GCAGGAAA	-0.0863
CCGGTAGC	0.217
CTCAGTTA	0.0398
CGAAGAAC	0.02
AGTCTCTA	-0.285
AATTAGTA	-0.116
GTGCGAGA	-0.176
CGGTCGAG	0.0809
CTCTCTCC	0.0749
ATTGCACG	0.101
CTCCCTGC	-0.151
ACACCTCG	0.0951
GAGGACGA	0.0565

Sequence	PBM E-score
CAGTCAGC	-0.193
CTTCAAAA	-0.099
AAAATGGA	0.168
ACTCAATA	-0.101
GAATCGAA	-0.058
CATGTACG	-0.0652
GCTTTATA	0.095
GCAATAAC	0.0921
GACCGACA	0.209
ATAGTATA	0.0747
AATAGGAC	-0.0636
AATCGTAC	-0.0876
CAGCGTTC	-0.0694
AATGTATA	0.0371
GCATGGAA	0.0414
ACGTGACA	-0.198
ACTGGACA	-0.189
GACCGAGC	0.0856
ACTACTCT	-0.173
ACACCGAA	0.217
AGCGTCTA	-0.195
GTCCGTCA	0.289
AGAAACCT	-0.0176
AGCAGCAC	-0.292
TACAACTA	-0.153

Sequence	PBM E-score
ATGAAACA	-0.0545
AGGGGTCG	-0.192
CTGCTGAA	-0.2
CTGTCGTC	-0.18
GACCAGCC	0.121
AACACTAT	-0.0375
AGTGTCAC	-0.071
CCGTGCAA	0.115
AGAGTAAG	-0.13
GGATGACC	0.0307
GAGGAGGA	-0.246
CCCTGCCG	0.0898
AATTATTG	0.0721
ACCGGTAA	0.297
GTGTCGTA	-0.209
ACCGTTAG	-0.177
AGCCAATG	-0.236
AATATGAC	-0.0637
CCTATTAA	0.0486
CTCTCAGA	-0.312
ACTCGTGG	-0.213
CAGATAAC	0.123
GCCGTACA	0.0776
CCCGCATA	0.176
AGAGAGGA	-0.213

Sequence	PBM E-score
ATTTCTGC	0.184
CTTAAGCA	-0.0791
CCGCCAAC	0.234
GTGAGAAA	0.0525
CCACGGGG	0.108
AAAGAGTT	-0.257
AAACAACC	-0.0624
GTTAGAAA	-0.0403
AAAGTCCG	0.482
AGACTGAA	-0.00088
ACCTCCAT	-0.0796
CCCGTTCG	0.0705
AACTTGGT	-0.115
CACGAGAC	-0.0922
CCGAACTA	0.316
ATTCAGAG	0.0283
GTCGGTCA	0.0634
ACGCCTAG	-0.289
AAACGGTT	-0.183
CGGGTCAC	-0.00367
CGTATCAG	0.0563
AGAATCGA	-0.141
GTGCGTCA	0.0395
CAACTAGC	0.0478
CTTTTAAC	-0.146

Sequence	PBM E-score
GTGCCGTA	0.0749
GGTACGCA	-0.126
CGGACAGA	0.29
CCCGGACA	0.405
ATCCAGCC	-0.0184
CTTATGTA	-0.127
TAACGTAA	-0.145
ACACGCGA	-0.174
TAGATTCA	-0.283
CTGCTAAA	-0.0313
GCGGGACA	0.214
AGTTACAT	-0.247
CGTGGCGC	-0.0166
AAACGTAA	-0.142
ATATCACA	-0.283
AGATGGTA	0.0643
CACGGGTA	-0.243
CAAGGGAC	-0.32
AGCGTCTG	-0.136
ACCCTTAG	-0.305
TATTCAGA	-0.18
ATCGTTCC	0.0747
